{
  "source": "patent US12624123B2",
  "about": "“Compositions and methods for reducing off-target toxicity of antibody drug conjugates” (The Research Foundation for The State University of New York, priority 2019, dated 2026)",
  "tested_on": "SK-BR-3 cells",
  "assay": "MTT cytotoxicity assay in SK-BR-3 cells",
  "assay_type": "cell-based",
  "conditions": "24 h exposure, without sdAb, read-out: Free DM4 IC50",
  "note": "A number of entries come with more than one value. This list holds those alone. The source may hold further records. Values that stand side by side appear to be repeats (runs, samples, wells or individuals); a mean can stand among them.",
  "data": [
    {"smiles": "COc1cc2cc(c1Cl)N(C)C(=O)C[C@H](OC(=O)[C@H](C)N(C)C(=O)CCC(C)(C)S)[C@]1(C)O[C@H]1[C@H](C)[C@@H]1C[C@@](O)(NC(=O)O1)[C@H](OC)/C=C/C=C(\\C)C2", "note": "[DM4]", "values": [
      {"measurement": "IC50", "value": "0.29, 0.42, 0.39, 0.4 nM"}
    ]}
  ]
}
